From article PMC12136788
The list shows a part of the results.

T1: UNK ZnF1-6 (called full-length) (human, UniProt Q9C0B0 30-357)
T1 sequence: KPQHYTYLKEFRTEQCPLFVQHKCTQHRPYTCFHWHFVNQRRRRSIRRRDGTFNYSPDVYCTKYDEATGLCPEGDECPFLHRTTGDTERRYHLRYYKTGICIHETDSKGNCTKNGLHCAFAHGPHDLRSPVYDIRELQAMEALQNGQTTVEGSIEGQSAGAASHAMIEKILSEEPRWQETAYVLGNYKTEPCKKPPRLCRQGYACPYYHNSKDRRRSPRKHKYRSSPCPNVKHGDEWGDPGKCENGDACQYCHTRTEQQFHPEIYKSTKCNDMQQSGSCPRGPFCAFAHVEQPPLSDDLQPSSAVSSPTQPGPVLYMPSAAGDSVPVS

B1: chr18:67510860:67510961:-|3pUTR|ENSG00000171451|msi1|total|mutant (ssRNA)
RNA: GGGAGUUCUACAGUCCGACGAUCACUAAUAAUACUUACCAACCCACUUUGUGGAUAUGAAUCAGAAGAGUUUGUUUAUUCUUCCGUGUGUGUGUGUGUGUGCACGCGUGUAUGUGUUCAGUGUUGUUUGCACAGAGAGAUUGUCAACAGAGGAUUGAGCAUCA
B2: chr3:98799561:98799662:-|CDS|ENSG00000057019|msi1|total|mutant (ssRNA)
RNA: GGGAGUUCUACAGUCCGACGAUCUUCAGUUGGUCAGCCCUCCACAUCCACUUUCAAGGCUACGGGGAACCAACCUCCCCCACCCGUGGGAACUUACAAUACACUUCUCUCCAGGACUGACAGCUGCUCCUCAGCCCAGGCCCACAACAGAGGAUUGAGCAUCA
B3: chr4:76160418:76160736:-|3pUTR|ENSG00000138760|msi1|FALSE|unique (ssRNA)
RNA: GGGAGUUCUACAGUCCGACGAUCAGUUCCUUCCUCAGUUUCAGUUCUUUCCAGUGUUUUGUAGCUCACUGUCACUCACUGAAUAGAGAAACGUGUGCCCUAUACUUCCUGUGACAAUCAUUUUGCUGACAGAAUGAUGGAUGUCAACAGAGGAUUGAGCAUCA
B4: ENSG00000115464:stop:overlap|stop_codon|ENSG00000115464|stop_codon|NA|stop_codon (ssRNA)
RNA: GGGAGUUCUACAGUCCGACGAUCUCAGAAAGGAACAUACUCUCAAAAUAUUUACUUAUAUCAAUUCCUGGACACAGAGGAUGUAGAAGUACCAUUGCAUUUGCUUCGUUAUGUAUGUUUGUUUUGUGGGAAAAAUGGCCUUUCCAACAGAGGAUUGAGCAUCA
B5: chr1:235808650:235808751:-|CDS|ENSG00000143669|unk|FALSE|unique (ssRNA)
RNA: GGGAGUUCUACAGUCCGACGAUCUGGAAAUGGGAUGCUUUAAAGGCUUAUCAGAACUUUGUUUUUGAAGAAGACAGAUUACAUAGUAUACAGAUUGCAAAUCACAUUUGCAAUUUAAUCCAGAAAGGCAAUAUAGUUGUUCAGCAACAGAGGAUUGAGCAUCA
B6: chr11:119314942:119315043:-|CDS|ENSG00000076706|msi1|total|mutant (ssRNA)
RNA: GGGAGUUCUACAGUCCGACGAUCGGGAGACUCUGCCCCUCUUGCCGCCCAGGACCCUUCUCCUCCUCUGUGUCUCCUCCCAUCCGGUCCACAAGGAGAAGCGGACGCUCAUCUUCCGUGUGCGCCAGGGCCAGGGCCAGAGCGCAACAGAGGAUUGAGCAUCA
B7: chr19:54923508:54923872:-|three_prime_utr|ENSG00000167634|control|control|control (ssRNA)
RNA: GGGAGUUCUACAGUCCGACGAUCCGGGAUUCGGGUCUCUAAGAUGUCUUAUGAAUGCAGGUCAGAGGGUCACAUGUUAACACUAGAGUCUGUCGAGAGGUAGGAUUUGACACUGGUUUUCUCACUAUUUUUGGGAGAUUCUGCCAACAGAGGAUUGAGCAUCA
B8: chr10:128104542:128104643:-|CDS|ENSG00000148773|msi1|total|mutant (ssRNA)
RNA: GGGAGUUCUACAGUCCGACGAUCAAGUGAUGAGAAAAAUAUCAACACAUUUGUGGAAACUCCAGUGCAGAAACUGGACCUGCCCGGAAAUUUACCUGGCAGCAAGAGACAGCCACAGACUCCUAAGGAAAAGGCUGAGGCUCUCAACAGAGGAUUGAGCAUCA
B9: chr6:122453778:122453910:-|CDS|ENSG00000111897|unk|FALSE|unique (ssRNA)
RNA: GGGAGUUCUACAGUCCGACGAUCCCUUUCAGUGUGGUUUUAUGUAGGCAUGGCAGGUGCCUUUUGUUUCAUCCUCAUACAACUAGUCUUACUUAUUGAUUUUGCACAUUCAUGGAAUGAAUCGUGGGUUGAAAAAAUGGAAGACAACAGAGGAUUGAGCAUCA
B10: chr19:57572896:57572997:-|CDS|ENSG00000083817|unk|total|mutant (ssRNA)
RNA: GGGAGUUCUACAGUCCGACGAUCCAUCGGAGAAUCCACACUGGAGAAAGGCCUUAUGUGUGUGGUCAGUGUGGGAAAUCAUUCCGCCAAAGAGCCACCCUCAUUAAACAUCACAGAGUUCACACUGGAGAAAGGCCUUACGAGCAACAGAGGAUUGAGCAUCA
B11: chr7:65954205:65954306:+|CDS_3pUTR|ENSG00000196715|msi1_unk|FALSE|overlapping (ssRNA)
RNA: GGGAGUUCUACAGUCCGACGAUCCAUCUGCAUCGUCACGUACGUGCUGAACUUCCUUCUUCUCAUUAUCAACUACAAACGACUAGUUUACUUGAACGAGGCCUGGAAGCGGCAGCUGCAACCCAAGCAGGACUGACGCCCGACCAACAGAGGAUUGAGCAUCA
B12: chr6:145799413:145799514:-|3pUTR|ENSG00000118496|msi1|FALSE|bound_elsewhere (ssRNA)
RNA: GGGAGUUCUACAGUCCGACGAUCUUAUCUCACAUACUUACAACUCAACACACAGAGUGACCAUGUGCAGCUUUCUUUUUUGUUAGAUGCCACAUCCGAAGACUCAUCGCAGUGUGUUAUAUGACAGGACAAAGCAAAAACAAACAACAGAGGAUUGAGCAUCA
B13: chr19:21971193:21974807:-|CDS|ENSG00000160321|control|control|control (ssRNA)
RNA: GGGAGUUCUACAGUCCGACGAUCCACAAGAAAAUUCAUACUGGAGAGAAACCCUACAAAUGUGAAGAAUGUGGCAAAGCCUUUAGUACGUUCUCAAUCCUCACUAAACAUAAGGUAAUUCAUACUGGAGAGAAACCCUACAAACAACAGAGGAUUGAGCAUCA
B14: chr3:25618756:25618858:-|CDS|ENSG00000077097|unk|FALSE|unique (ssRNA)
RNA: GGGAGUUCUACAGUCCGACGAUCUAUAUAAGUUAAAAUACCAGUACAGAUCUAUAUGAUCUGCAAAGUAUAUGUGUUUUGCUUAGGUACUUUUUGAUCAUAUGGGAUGUCUGAAGAAAUAUGAAACUGUGCAAGACAUUCUGACAACAGAGGAUUGAGCAUCA
B15: chr9:101390585:101390694:-|CDS|ENSG00000136897|unk|FALSE|unique (ssRNA)
RNA: GGGAGUUCUACAGUCCGACGAUCUAAUUGGCAAGACAUCUCCCUGGAAGAUAGUCGUCUAAAGUUCAAUCUUCUGGCUCAUUUAGCUGAUGACUUGGGUCAUGUAGUCCCUAACUCCAGACUCCACCAGAUGUGCAGGGUUAGCAACAGAGGAUUGAGCAUCA
B16: chr3:48857559:48857660:-|3pUTR|ENSG00000178537|unk|total|mutant (ssRNA)
RNA: GGGAGUUCUACAGUCCGACGAUCGGCUGAAGGCUGCUCAAGUUCACUUCUGGAUGCUGGAAGCUGUCGUUGAGGAGAAGGAGCCGUAAGCAGAACUAAGCAGUCUUGGAGGGCAAGGGGAGGGGAAUGGUGAGAUCCGAGCCCCAACAGAGGAUUGAGCAUCA
B17: chr19:18929200:18929442:-|three_prime_utr|ENSG00000051128|control|control|control (ssRNA)
RNA: GGGAGUUCUACAGUCCGACGAUCCGGGGCUGGUUUUCUAUGAACGAUUCCGGCCUGGGAUGCGGGCCAGGCUGCAGGCGGCAUAGUUGGGCCCAUUCGUCCUGGAAAGGGACUGGGGGGUCCCAACUUAGCCCUGGGUGGGCCCAACAGAGGAUUGAGCAUCA
B18: chr17:42200006:42200107:-|3pUTR|ENSG00000173757|unk|FALSE|unique (ssRNA)
RNA: GGGAGUUCUACAGUCCGACGAUCAAGCUGCCGUUUGCCUUGGCUUGGUUUCAUACACUGAUUUAUUUUUCUAUGCCAGGCAGUAGAGUCUCUCUGCCUCUGAGGAGCAGGCUACCCGCAUCCCACUCAGCCCCUCCCUACCCCCAACAGAGGAUUGAGCAUCA
B19: chr10:89774496:89774597:+|3pUTR|ENSG00000138182|msi1|FALSE|bound_elsewhere (ssRNA)
RNA: GGGAGUUCUACAGUCCGACGAUCAAGAUCUCAAGUCUUUAAUUAGAAUGUCUCACUUAUUUUGUAAACAUUUUGUGGGUACAUAGUACAUGUAUAUAUUUACGGGGUAUGUGAGAUGUUUUGACACAGGCAUGCAAUGUGAAACAACAGAGGAUUGAGCAUCA
B20: chr10:131940083:131940120:+|CDS_3pUTR|ENSG00000175470|msi1_unk|total|mutant (ssRNA)
RNA: GGGAGUUCUACAGUCCGACGAUCAUAUAAUGUUUACAGCACCUUUCAAAGUCAUGAACCGGAGUUUGACUAUUUGAAAAGUCCCGAAAUUGAGGAAAAAAUUAAUAAAAUCCGGUGGUUACCACAACAGAAUGCUGCUCAUUUCAACAGAGGAUUGAGCAUCA
B21: chr16:8795179:8795951:-|three_prime_utr|ENSG00000184857|control|control|control (ssRNA)
RNA: GGGAGUUCUACAGUCCGACGAUCCCUGGGAACAUGUGUUUUGUGGUGAAUAAAUUCACAAGGCAAGAGCUGGUGUACAGGUUUAGGAAAAAGGCUCUAAGCAAGUUCUUACAGCACUUGUUUGUGACAUUCAGUCAGAUAAUGCAACAGAGGAUUGAGCAUCA
B22: ENSG00000198589:be:win_6901|CDS|ENSG00000198589|bound_else_gene|NA|bound_elsewhere_windowed (ssRNA)
RNA: GGGAGUUCUACAGUCCGACGAUCCUUGCAUGGCUGCUAAGAAUAGAACCCUUUACAACUUAUUUCCUAAAUUUGCAAGGAGGCAAAUUUGAUCAUGCAGAUCGAACUUUUUCAUCAAUUUCCAGAGCUUGGCGAAACAGUCAGCAACAGAGGAUUGAGCAUCA

target: T1, UNK ZnF1-6 (called full-length); assay: nsRBNS (natural sequence RNA bind-n-seq); RBNS binding buffer (assumed for nsRBNS): 25 mM Tris pH 7.5, 150 mM KCl, 3 mM MgCl2, 0.01% Triton X-100, 500 ug/ml BSA, 20 U/ml SUPERase-In, 4 C; UNK is unkempt and MSI1 is Musashi-1; names of the RNAs are library labels; protein concentration not given here; high values mean tight binding

Binder | binding signal [enrichment R]
B1 | 0.339
B2 | 0.729
B3 | 0.297
B4 | 0.937
B5 | 0.599
B6 | 1.21
B7 | 0.765
B8 | 0.613
B9 | 0.596
B10 | 0.502
B11 | 0.834
B12 | 0.267
B13 | 0.239
B14 | 0.4
B15 | 0.572
B16 | 1.01
B17 | 0.919
B18 | 0.936
B19 | 0.474
B20 | 0.554
B21 | 0.531
B22 | 0.684
